# In the BET-seq Pho4 binding data (Le et al. 2018):
# The list shows a part of the results. The energies were worked out here from pooled read counts, against the library average; single values are noisy.
# Target: T1, Pho4 (S. cerevisiae) (UniProt P07270)
# T1 sequence: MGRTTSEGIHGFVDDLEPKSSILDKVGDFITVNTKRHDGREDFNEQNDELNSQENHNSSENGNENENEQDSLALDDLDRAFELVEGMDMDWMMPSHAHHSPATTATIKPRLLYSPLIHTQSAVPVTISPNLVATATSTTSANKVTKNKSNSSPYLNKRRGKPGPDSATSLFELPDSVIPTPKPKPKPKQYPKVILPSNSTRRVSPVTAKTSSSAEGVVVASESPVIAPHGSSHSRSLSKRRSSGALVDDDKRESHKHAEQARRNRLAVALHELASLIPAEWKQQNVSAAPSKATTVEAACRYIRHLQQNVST
# Assay: relative binding free energy (BET-seq); higher = weaker binding
# Details: reference: library average
row,Sequence,relative binding free energy
1,TGAGACACGTGACTGG,0.26 kcal/mol
2,CGGGTCACGTGGTCAT,0.08 kcal/mol
3,GGTAGCACGTGGACAT,0.02 kcal/mol
4,TGGCGCACGTGTTGTT,-0.04 kcal/mol
5,TTAGACACGTGGAGTG,-0.02 kcal/mol
6,GGTATCACGTGGTTCA,0.14 kcal/mol
7,GTGATCACGTGAGTGG,0.23 kcal/mol
8,GGTTGCACGTGCGAGA,0.08 kcal/mol
9,GGTGGCACGTGCGATG,0 kcal/mol
10,AATCGCACGTGGTGTT,-0.07 kcal/mol
11,GGTGGCACGTGAAAGC,0.22 kcal/mol
12,AAATTCACGTGTTGGA,0.17 kcal/mol
13,CATGGCACGTGGGGTC,-0.21 kcal/mol
14,GGTGTCACGTGCTGGT,0.15 kcal/mol
15,GGTAGCACGTGGATCG,0.11 kcal/mol
16,AGCGACACGTGAAGGT,0.31 kcal/mol
17,TTCGCCACGTGGGGCG,-0.14 kcal/mol
18,TATTACACGTGTTATC,0.21 kcal/mol
19,GGGTGCACGTGTTCGG,0.1 kcal/mol
20,AATATCACGTGGGACT,0.17 kcal/mol
21,ATGTACACGTGTCTGT,0.09 kcal/mol
22,ATGAGCACGTGTGTTT,-0.09 kcal/mol
23,GATGTCACGTGGGTGG,0.01 kcal/mol
24,TTGGACACGTGGACAT,0.08 kcal/mol
25,TCTGGCACGTGCTTGG,-0.11 kcal/mol
26,TAGGTCACGTGGGAGG,0.04 kcal/mol

row,Sequence,relative binding free energy
1,GTTTTCACGTGAGTCG,0.28 kcal/mol
2,GTGTTCACGTGCGTGT,0.3 kcal/mol
3,GTAATCACGTGTGAAT,0.06 kcal/mol
4,GAGAACACGTGGTTTT,0.11 kcal/mol
5,GTAAGCACGTGGGGGG,-0.17 kcal/mol
6,TATGTCACGTGAACTT,0.29 kcal/mol
7,CTAAGCACGTGTGGGT,0 kcal/mol
8,CGTTGCACGTGTAAGG,0.12 kcal/mol
9,GATGCCACGTGGAGGT,-0.06 kcal/mol
10,AGTGCCACGTGAGTGT,0.1 kcal/mol
11,TCTGTCACGTGTTTCT,0.1 kcal/mol
12,GTGTACACGTGGTACT,0.07 kcal/mol
13,TGATCCACGTGTTTGT,0.08 kcal/mol
14,TTAAGCACGTGGTGGC,-0.1 kcal/mol
15,TCTTTCACGTGTCGGG,0.3 kcal/mol
16,TGAAGCACGTGATTTT,0.09 kcal/mol
17,TATTTCACGTGTTGAG,0.32 kcal/mol
18,GGCGCCACGTGGTGTA,-0.04 kcal/mol
19,GGGGGCACGTGGCCGC,-0.27 kcal/mol
20,TTTCACACGTGAAGTG,0.23 kcal/mol
21,GGGCTCACGTGAGGGT,0.44 kcal/mol
22,TGGTTCACGTGGGAAG,0.21 kcal/mol
23,GGTAACACGTGGATAT,0.17 kcal/mol
24,AATATCACGTGGGTTC,0.05 kcal/mol
25,GCAGTCACGTGGGCTG,0.09 kcal/mol
26,ATCGGCACGTGTCATG,0.03 kcal/mol

row,Sequence,relative binding free energy
1,AATAGCACGTGGTGGG,-0.2 kcal/mol
2,GAATTCACGTGTTTTC,0.42 kcal/mol
3,TGTTGCACGTGGATCG,-0.02 kcal/mol
4,AATGGCACGTGGCTTA,-0.08 kcal/mol
5,GGGTGCACGTGTAACA,0.11 kcal/mol
6,TTGATCACGTGTGTTC,0.18 kcal/mol
7,GGGTACACGTGGGATC,-0.02 kcal/mol
8,ATGGCCACGTGCAGGT,-0.16 kcal/mol
9,GTGTACACGTGTAGAG,0.06 kcal/mol
10,GGAGCCACGTGACGGG,0.06 kcal/mol
11,GGTTTCACGTGGATTG,0.35 kcal/mol
12,CTTAGCACGTGTTGTG,-0.12 kcal/mol
13,AGAGACACGTGAGGTG,0.2 kcal/mol
14,CGTGACACGTGGGGCT,-0.15 kcal/mol
15,TTTTGCACGTGCAAGG,-0.1 kcal/mol
16,TAGAACACGTGTTGGC,0.02 kcal/mol
17,TTGGCCACGTGTAGTA,-0.03 kcal/mol
18,TTTGACACGTGGTAAG,-0.07 kcal/mol
19,GGAGTCACGTGGAGAA,0.2 kcal/mol
20,CAATGCACGTGTGGAG,0.06 kcal/mol
21,TATGTCACGTGCTGGT,0.03 kcal/mol
22,GTAGACACGTGGGATA,-0.09 kcal/mol
23,TTAACCACGTGTGGGT,0.01 kcal/mol
24,TGGTTCACGTGTCTGT,0.26 kcal/mol
25,GGAGGCACGTGAGCAT,0.14 kcal/mol
26,ATTAACACGTGTGGGG,0.02 kcal/mol

row,Sequence,relative binding free energy
1,CTGTTCACGTGTAGTA,0.36 kcal/mol
2,TTCAGCACGTGCGGTT,-0.11 kcal/mol
3,TTAACCACGTGGGTTA,-0.22 kcal/mol
4,GTATGCACGTGTCTTT,-0.07 kcal/mol
5,ATCGTCACGTGGATTT,0.18 kcal/mol
6,AGGTGCACGTGGAGGC,-0.12 kcal/mol
7,TCAGGCACGTGTACGG,0.09 kcal/mol
8,TGTGTCACGTGTGCGA,-0.06 kcal/mol
9,AAGTGCACGTGGATGT,-0.12 kcal/mol
10,GAAGTCACGTGGTGAG,0.19 kcal/mol
11,GTAGTCACGTGTGGAG,0.14 kcal/mol
12,TCTTTCACGTGAGGAT,0.35 kcal/mol
13,TGCGTCACGTGATTGA,0.11 kcal/mol
14,TGCCGCACGTGGTGGA,-0.14 kcal/mol
15,CTCTTCACGTGGGTGA,0.32 kcal/mol
16,GGTTGCACGTGAGTTC,0.31 kcal/mol
17,TACGTCACGTGTCGGG,0.1 kcal/mol
18,CTGTGCACGTGCTGTG,-0.19 kcal/mol
19,ATTTACACGTGAAGCT,0.24 kcal/mol
20,GAATGCACGTGCAGGG,0 kcal/mol
21,GTTTGCACGTGAGGAG,0.27 kcal/mol
22,GGTTGCACGTGGGCGC,-0.02 kcal/mol
23,GGGTCCACGTGTTTGG,0.15 kcal/mol
24,GGGTTCACGTGAGGAC,0.56 kcal/mol
25,TGTATCACGTGCGGTT,0.08 kcal/mol
26,CATATCACGTGGTTAT,0.1 kcal/mol

row,Sequence,relative binding free energy
1,TGTTACACGTGTGTTT,0.17 kcal/mol
2,ATTGTCACGTGTGCCG,0.13 kcal/mol
3,GAAGTCACGTGGTGTC,0.11 kcal/mol
4,CGTTTCACGTGACGGG,0.18 kcal/mol
5,GGGTTCACGTGAAATA,0.34 kcal/mol
6,TATGTCACGTGAAGTT,0.28 kcal/mol
7,TTTTGCACGTGGCTAT,-0.19 kcal/mol
8,TTAGACACGTGATGAG,0.08 kcal/mol
9,GTGCACACGTGTTTGG,0.14 kcal/mol
10,TGGAACACGTGGTCAG,-0.01 kcal/mol
11,AGGTGCACGTGGAATT,0.03 kcal/mol
12,CGTGACACGTGGGAAG,-0.09 kcal/mol
13,ATTTGCACGTGATTTG,0.03 kcal/mol
14,TTAAGCACGTGTGTTT,-0.09 kcal/mol
15,ATGTGCACGTGAAGAG,0.24 kcal/mol
16,GGTAGCACGTGTTAAA,0.04 kcal/mol
17,GGAAGCACGTGCAGTG,0 kcal/mol
18,CTTTGCACGTGAGGAG,0.26 kcal/mol
19,GCGTTCACGTGGAGGA,0.24 kcal/mol
20,ATTGGCACGTGGTAGC,-0.21 kcal/mol
21,CTTATCACGTGGCTTT,0.18 kcal/mol
22,CTTTTCACGTGGTCTT,0.21 kcal/mol
23,CCGCGCACGTGGGTGG,-0.19 kcal/mol
24,ATGTGCACGTGTACGG,-0.13 kcal/mol
25,TGCTACACGTGGTTGG,0.12 kcal/mol
26,TGTTGCACGTGCTTGT,-0.16 kcal/mol

row,Sequence,relative binding free energy
1,TCGGACACGTGGTAGA,0.09 kcal/mol
2,ACGGCCACGTGGTGTA,-0.14 kcal/mol
3,CGTGACACGTGTCAGG,0.07 kcal/mol
4,ATTTACACGTGGTAGT,-0.02 kcal/mol
5,ATTTTCACGTGTGGTT,0.26 kcal/mol
6,CGGGGCACGTGCTTTT,-0.13 kcal/mol
7,ATCGGCACGTGTGCTT,0.02 kcal/mol
8,TTCAGCACGTGTTTTA,-0.06 kcal/mol
9,TATGACACGTGCTTTT,0.09 kcal/mol
10,AATTTCACGTGGTATT,0.21 kcal/mol
11,GGCGGCACGTGTTAGA,0.04 kcal/mol
12,CTGTACACGTGTCTGT,0.15 kcal/mol
13,TGGATCACGTGTTACT,0.15 kcal/mol
14,TGTTACACGTGAGATG,0.27 kcal/mol
15,GTTAGCACGTGCGGTC,0.03 kcal/mol
16,TAGCACACGTGGGGGC,-0.03 kcal/mol
17,ATGGACACGTGTGTTG,0.1 kcal/mol
18,GGAACCACGTGGATGG,0.11 kcal/mol
19,AGGTGCACGTGCGGTG,-0.07 kcal/mol
20,TTTATCACGTGGCAGT,0.07 kcal/mol
21,TGGAGCACGTGTCGGC,-0.14 kcal/mol
22,ACGGCCACGTGCGGGG,-0.17 kcal/mol
23,TGTCTCACGTGATTAG,0.21 kcal/mol
24,ATTTGCACGTGCAATG,0.08 kcal/mol
25,TGTTGCACGTGAGCTT,0.08 kcal/mol
26,GTCGTCACGTGGGGCG,-0.12 kcal/mol

row,Sequence,relative binding free energy
1,ATTGGCACGTGAGTGA,-0.01 kcal/mol
2,GCTGGCACGTGTAGTG,0.03 kcal/mol
3,GAGGACACGTGCGTGT,-0.12 kcal/mol
4,TGAATCACGTGAAAGG,0.55 kcal/mol
5,TTTGACACGTGGGCCG,0.03 kcal/mol
6,AGTGTCACGTGTGTAA,-0.07 kcal/mol
7,TGTTGCACGTGATCTG,0.12 kcal/mol
8,AGTTCCACGTGAGAGG,0.33 kcal/mol
9,GGAGTCACGTGGTAAG,-0.01 kcal/mol
10,GAGGTCACGTGGTGGA,0.18 kcal/mol
11,TTGAGCACGTGGAGTC,-0.07 kcal/mol
12,AGTTTCACGTGAGCTT,0.26 kcal/mol
13,ATCTACACGTGGTGGG,0.03 kcal/mol
14,CGGGTCACGTGAATGG,0.29 kcal/mol
15,ACAGTCACGTGGGAGG,-0.17 kcal/mol
16,TGATGCACGTGTGTTA,0.02 kcal/mol
17,GGTTTCACGTGCAGGG,0.38 kcal/mol
18,TTGGACACGTGGTAAC,0.05 kcal/mol
19,TAGGTCACGTGAAGAA,0.41 kcal/mol
20,ATCTGCACGTGCGGTT,-0.13 kcal/mol
21,TGGGACACGTGCAGGT,-0.08 kcal/mol
22,GTCAGCACGTGAGGTG,0.21 kcal/mol
23,TTTGGCACGTGTTAAA,-0.02 kcal/mol
24,CAGGTCACGTGGGTAA,-0.03 kcal/mol
25,AGGTGCACGTGGTCTA,-0.26 kcal/mol
26,TTGAGCACGTGGATCG,0.1 kcal/mol

row,Sequence,relative binding free energy
1,TTCTACACGTGTAAGT,0.14 kcal/mol
2,GACGGCACGTGTAGGG,-0.02 kcal/mol
3,TGTGGCACGTGTATGT,-0.01 kcal/mol
4,AACTGCACGTGGGTGG,-0.24 kcal/mol
5,TCGTTCACGTGGACGT,0.24 kcal/mol
6,CTGTACACGTGTTGGG,0.14 kcal/mol
7,AGTAGCACGTGTTTAG,-0.11 kcal/mol
8,TTTGTCACGTGCTATA,-0.17 kcal/mol
9,CTTGTCACGTGGGATG,0.05 kcal/mol
10,TAAGTCACGTGCATGG,-0.01 kcal/mol
11,AAAGACACGTGGGAGG,-0.03 kcal/mol
12,TTGAGCACGTGCAGGT,-0.15 kcal/mol
13,CTTCTCACGTGTTGTG,0.04 kcal/mol
14,ACCGGCACGTGGTGTT,-0.02 kcal/mol
15,GGGATCACGTGAGATA,0.41 kcal/mol
16,GAGTTCACGTGGAGCT,0.35 kcal/mol
17,TAGTACACGTGGCAGT,-0.01 kcal/mol
18,CGTGTCACGTGCGGTA,0.11 kcal/mol
19,GTTCTCACGTGGATGG,0.19 kcal/mol
20,CTGGGCACGTGGTAAA,-0.18 kcal/mol
21,TCTTTCACGTGATCGA,0.38 kcal/mol
22,GTATTCACGTGTAAGC,0.31 kcal/mol
23,CGCCTCACGTGGTGGG,0 kcal/mol
24,GGATGCACGTGATTCG,0.12 kcal/mol
25,TTTTCCACGTGTTCTT,0.2 kcal/mol
26,CTTAGCACGTGGTTAG,-0.12 kcal/mol

row,Sequence,relative binding free energy
1,TCTGTCACGTGACTGG,0.25 kcal/mol
2,CGATTCACGTGAGTTG,0.36 kcal/mol
3,TGGTCCACGTGTGTGC,0.18 kcal/mol
4,TAGGTCACGTGTAGTT,0.09 kcal/mol
5,TGTGTCACGTGATACA,0.28 kcal/mol
6,TGATACACGTGGCGTG,-0.26 kcal/mol
7,TTTTACACGTGCTGGA,0.14 kcal/mol
8,GTGGACACGTGAATGT,0.23 kcal/mol
9,ATTGGCACGTGAGTCG,0.12 kcal/mol
10,AATTTCACGTGGTCGA,0.21 kcal/mol
11,TTATGCACGTGAGCTT,0.2 kcal/mol
12,TGGAGCACGTGGTATG,-0.24 kcal/mol
13,GGGAACACGTGGACGG,0.05 kcal/mol
14,GATGTCACGTGGGGAA,0 kcal/mol
15,GGTACCACGTGGTGAG,-0.05 kcal/mol
16,TAGTTCACGTGGAACG,0.36 kcal/mol
17,ATTGTCACGTGGTAAA,0.13 kcal/mol
18,GGTCGCACGTGGGAAT,-0.19 kcal/mol
19,TCTTTCACGTGATGTG,0.39 kcal/mol
20,TTGTACACGTGGCGTG,-0.05 kcal/mol
21,CGGAGCACGTGTTGAG,-0.06 kcal/mol
22,ATGGTCACGTGGGCTG,-0.17 kcal/mol
